The results in this text go back to the supplement of paper PMC10338343.

± gives the standard deviation. In all, about 3,000 sequences were measured (“pre-steady-state target cleavage rate”: median about 0.0079, highest 2% from about 0.2 on). Only a part is listed here, and it is no random draw.

This experiment has as its system MILI (PIWIL2) piRISC loaded with piRNA #2 (26 nt). The experiment is described as follows: pre-steady-state target cleavage rate (min^-1); MIWI and MILI are mouse PIWI proteins and EfPiwi is from a freshwater sponge; tags in brackets are library labels; higher = faster piRNA-guided slicing of the target. The note with it: guide: piRNA #2 5'p-UUAGGUAACCCAGUAGAUCCAGAGGA; auxiliary factor: 500 nM mouse GTSF1. As for the experimental part:
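Cleave-'n-Seq: a library of target RNAs (target site embedded in constant flanks, ACAGCATTCCGCGTTAGTGATATCCG... 5' flank; DNA-blocked outside the site) at 0.1 nM was incubated with 1 nM active mouse MILI or MIWI piRISC (synthetic 5'-monophosphorylated piRNA guide) with or without 500 nM mouse GTSF1 at 33 °C for 1 min to 16 h. Uncleaved targets were sequenced and normalised to non-target controls, and the pooled three trials were fitted to a burst-and-steady-state model to give the pre-steady-state cleavage rate (min^-1; k3 is constrained to at most 1e-4). Sequence is the target site only; target names encode pairing extent (gX:gY) and contiguous / 1-mismatch / 2-mismatch / bulge geometry. Fits with R² ≤ 0 are excluded.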
As to CUUAAGGAGAGCAUCUACUGGGUUACCAAA, the “pre-steady-state target cleavage rate” value was found to be 0.00707 ± 0.005.
With CUUAAGGUCUGGAUCUAGUGGGUUAGCUAA, the “pre-steady-state target cleavage rate” value stood at 0.00749 ± 0.005.
As for CUUAAGGAGUGGAUGUACAGGGUUACCUAA, the figure is 0.0392 ± 0.0091; as for CUUAAGCUCUGGAUCGACUGGGUUACCUAA, 0.0478 ± 0.0096.
As for CUUAAGCUCUGGAUGUACUGGGUUACCUUA, the figure is 0.0568 ± 0.016.
As for CUUAACGUCUGGAUCUAGUGGGUUACCUAA, the figure is 0.0564 ± 0.0094; as for CUUAAGGUCUGGAUCUACUGGGUUACCUUA, 0.0544 ± 0.012; as for CUUAAGCUCUCGAUCUACUGGGUUAGCUAA, 0.0146 ± 0.0083.
With CUUAAGCUCUGGAUCUACAGGGUUUCCUAA, the “pre-steady-state target cleavage rate” value came to 0.0336 ± 0.0089.
As for CUUAUGCCUCUGGAUCUACUGGGUUACCUAA, the figure is 0.142 ± 0.038.
The same measure for CUUAAGGUCUGGAUCUUCUGGGUUACCAAA: 0.0122 ± 0.0048.
The same measure for CUUAAGGAGAGCAUCUACAGGGUUACCUAA: 0.0304 ± 0.011; for “CUUAAGGUCUGGAUCUACUGGGUUACCUAG [g2:g23:cont:t1G]”: 0.112 ± 0.021.
As to CUUAAGCAGUGGAUCUACUGGGUUACCUAA, the “pre-steady-state target cleavage rate” value worked out at 0.0705 ± 0.017.
As for CUUAUCCUCUGCAUCUACAGGGUUACCUAA, the figure is 0.101 ± 0.022; as for CUUAAGGUCUGUAUCUACUGGGUUACCUAA, 0.0419 ± 0.017; as for CUUAUCCUCAGGAUCUACUGGGUUACGUAA, 0.0113 ± 0.0056.
As for CUUAUCCUCUGGAUCUACUGAGUUACCUAA, the figure is 0.0631 ± 0.016; as for CUUAAGGUCUGGAUCUAGUGGGUUACCUUA, 0.0544 ± 0.015.
The same measure for CUUAACCUCUGGAUCUAGUGGGUUUCCUAA: 0.0502 ± 0.017; for CUUAAGGAGACCUACAACUGGGUAACCUAA: under 0.0001; for CUUAUCCUCUGGAUGAUCUGGGUUACCUAA: 0.0388 ± 0.012.
Turning to CUUAAGCUCUCCUUCUACUGGGUUACCUAA, the “pre-steady-state target cleavage rate” value turned out to be 0.0472 ± 0.016.
The same measure for CUUAAGGUCUGGAGUCUACUGGGUUACCUAA: 0.0424 ± 0.014.
The same measure for CUUAAGGACUCGAUCUACUGGGUUACCUUA: 0.00654 ± 0.0038; for CUUAUCCUCUGGAUCUAGUGGGUUACCAAA: 0.0654 ± 0.012; for CUUAAGGAGACGGAUCUACUGGGUUACCUAA: 0.0103 ± 0.0042.
The same measure for CUUAAGCUCUGGAUGUACUGGGAUACCUAA: 0.0202 ± 0.0073; for CUUAAGGUCUGGAUCUACAGGGUUACGUAA: 0.059 ± 0.014; for “CUUAAGGAGAGGAUCUACUGGGUUACCUAA [g2:g20:cont:t1A]”: 0.0156 ± 0.0072.
On to CUUAUCCUGUGGAUGUACUGGGUUACCUAA, for which the “pre-steady-state target cleavage rate” value worked out at 0.084 ± 0.019.
With CUUAAGGACUGGAACUACUGGGUUACCUAA, the “pre-steady-state target cleavage rate” value came to 0.0228 ± 0.016.
As for CUUAACCUCUGGAUCUACUGGGUUACACUAA, the figure is 0.179 ± 0.034; as for CUUAUCCUCUGGAUCUACUGGGUAACCAAA, 0.0461 ± 0.017.
As for CUUAAGCUCUGGAACUACUGGGUUACCUAA, the figure is 0.0845 ± 0.022; as for CUUAAGGUCUGGAUCUACUGGGUUAUCUAA, 0.0655 ± 0.012; as for CUUAAGCUCUGGUUCUACUGGGUUAGCUAA, 0.0824 ± 0.034.
As for CUUAAGGAGUGGCUCUACUGGGUUACCUAA, the figure is 0.0556 ± 0.017; as for CUUAAGGAGUGGAUCUACUGUGUUACCUAA, 0.00967 ± 0.0061.
CUUAAGGUCUGGAAUCUACUGGGUUACCUAA: the “pre-steady-state target cleavage rate” value worked out at 0.0527 ± 0.013.
The same measure for CUUAACCUGUGGAUCUACUGGGUUACCUUA: 0.08 ± 0.019; for CUUAAGCUCAGGAUCUAGUGGGUUACCUAA: 0.05 ± 0.014.
As for CUUAACCACUGGUUCUACUGGGUUACCUAA, the figure is 0.112 ± 0.019; as for CUUAACCUCUGGAUCUACUGGGUUAGCCUAA, 0.15 ± 0.035; as for CUUAAGCUCUGGAUCUACACGGUUACCUAA, 0.00855 ± 0.0027.
The same measure for CUUAAGGAGUGGAUCAACUGGGUUUCCUAA: 0.00749 ± 0.0043; for CUUAAGGUCUGGAUCUACACGGUUACCUAA: 0.011 ± 0.0029; for CUUAAGGUCUUGGAUCUACUGGGUUACCUAA: 0.113 ± 0.026.
With CUUAACCUCUCGAUCUACUGGCUUACCUAA, the “pre-steady-state target cleavage rate” value was 0.00579 ± 0.0036.
As for CUUAAGGAGAGGUUCUACAGGGUUACCUAA, the figure is 0.0098 ± 0.0054; as for CUUAAGGAGAGGAUCUACUGGGUAACCUAA, 0.00614 ± 0.0037; as for CUUAAGGUCUGGACUCUACUGGGUUACCUAA, 0.0367 ± 0.014.
For CUUAUCCUCUGGUUCAACUGGGUUACCUAA, the “pre-steady-state target cleavage rate” value amounted to 0.225 ± 0.063.
As for CUUAACGACUGGAUCUACUGGGUUACCUAA, the figure is 0.0763 ± 0.016.
The same measure for CUUAACCUCUGGAACAACUGGGUUACCUAA: 0.0723 ± 0.02; for CUUAACCUCUGGAUCUUCUGGGUUACCUUA: 0.0805 ± 0.02.
The same measure for CUUAAGGUCUGGAACUACAGGGUUACCUAA: 0.0426 ± 0.011.
In the case of CUUAAGCUGUGGAACUACUGGGUUACCUAA, the “pre-steady-state target cleavage rate” value came out at 0.0243 ± 0.013.
The same measure for CUUAAGCUCUGCAUCUACUGGGUUACCUUA: 0.0789 ± 0.017.
The same measure for CUUAUCCUCUGGUUCUACUGGCUUACCUAA: 0.00964 ± 0.005; for CUUAAGGUACUGGAUCUACUGGGUUACCUAA: 0.0665 ± 0.022.
The same measure for CUUAAGGAGACCUAGAUGUGGGUUACCGAA: under 0.0001; for CUUAAGCACUGGAUCUACUGGGUUACCAAA: 0.0791 ± 0.017.
For the sequence CUUAUCCUCUGGAUGUUCUGGGUUACCUAA, the “pre-steady-state target cleavage rate” value came to 0.0834 ± 0.015.
Turning to CUUAUCCUGAGGAUCUACUGGGUUACCUAA, the “pre-steady-state target cleavage rate” value is 0.0211 ± 0.0074.
CUUAAGGAGUGGAUCUACUGGGAUUACCUAA: the “pre-steady-state target cleavage rate” value came to 0.0083 ± 0.0035.
The same measure for CUUAAGGAGUGGAACUACAGGGUUACCUAA: 0.0101 ± 0.0072; for CUUAAGGUCUGGAUCUACUGGGUUACCGUAA: 0.0456 ± 0.014; for CUUAAGCUCUGGAUCUACUGGGUUACACUAA: 0.112 ± 0.019.
The same measure for CUUAACCUCUGGAUCUACUGGGUUACCUCAA: 0.09 ± 0.019; for CUUAAGCUGUCGAUCUACUGGGUUACCUAA: 0.0193 ± 0.0091.
